According to PubChem BioAssay AID1345083 (National Center for Advancing Translational Sciences (NCATS), 2018):
Out of some 94,000 compounds screened, about 6,200 (6.6%) were called active. This list was built around the results that the source calls inconclusive (neither active nor inactive); the mix of calls is not that of the screen. Calls follow the shape of the dose curve; as a rule, active = well fitted inhibition curve with a large enough effect; inconclusive = small, poorly fitted or top-dose-only effect; inactive = flat fitted curve, though single readings scatter. Potencies of inconclusive entries are doubtful fits and often do not repeat.

Assay: Cytotoxic Profiling in HEK 293 Cell Line of Diverse Libraries Using Quantitative High-Throughput Screening; also: nearly all actives have a fitted effect of over 60% in size
Settings: HEK 293 viability, ATP luminescence (CellTiter-Glo), 48-72 h; series mostly up to 115 µM
Outline: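 HEK 293 seeded at 250 cells/well receive compound via pintool. After 48 or 72 hr at 37 degree Celsius, 5% CO2 and 95% humidity, CellTiter-Glo is dispensed and luminescence read following 10 min at room temperature.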
Potency is read from the fitted curve at half-maximal effect; tags tell the direction and shape of the fitted curve.

SMILES | Potency
CS(=O)(=O)Nc1ccc(C2(C(=O)NCc3ccc(F)cc3Cl)CCCCC2)cc1 | inconclusive: 100 µM [inhibitor, single point]
CCn1cc(-c2ccc(Cl)cc2)cc1C(=O)N1CCN(c2ccccn2)CC1 | inconclusive: 44.7 µM [inhibitor, partial curve, poor fit]
COc1cccc(CC(=O)N2CCCC(c3noc(COc4ccccc4)n3)C2)c1 (centres undefined) | inconclusive: 70.8 µM [inhibitor, partial curve, poor fit]
CCC1Oc2ccc(NC(=O)Cc3ccccc3)cc2CN(Cc2ccccc2)C1=O (centres undefined) | inconclusive: 50.1 µM [inhibitor, partial curve, poor fit]
O=C(NC1CCN(C(=O)c2ccc(-c3cccs3)cc2)CC1)C1CCCC1 | inconclusive: 79.4 µM [inhibitor, partial curve, poor fit]
CC(C)CCN1CCOc2cc(C(=O)Nc3nccs3)ccc2C1 | active: 100 µM
Cc1cccc(CN(C(=O)c2ccco2)c2ccc(CC(=O)NCC3CCCO3)cc2)c1 (centres undefined) | inconclusive: 44.7 µM [inhibitor, partial curve]
CN1CCCCCC1C(=O)N1CCN(c2ccc(C#N)cn2)CC1 (centres undefined) | inactive
Cc1ncsc1CN1CCCCCCNC(=O)[C@@H]2CCC[C@@H]21 | inconclusive: 100 µM [inhibitor, single point]
N#Cc1ccc(C(=O)N2CCC(n3cc(-c4nc(C5CC5)no4)nn3)C2)cc1 (centres undefined) | inconclusive: 31.6 µM [inhibitor, partial curve, poor fit]
Nc1n[nH]c(CNc2cc(-c3ccc(F)cc3)nc3ccnn23)n1 | inactive
CC1CCN(CC2CCCN(C(=O)c3ccc(F)cc3)CC2)CC1 (centres undefined) | inactive
O=C(Nc1cccc(F)c1)C1CCCN(Cc2cccc(-c3ccc(F)cc3F)c2)C1 (centres undefined) | active: 20 µM
COc1cc(CN2CCC[C@H]2c2nc(-c3ccc(-c4ccncc4)nc3)no2)cc(OC)c1OC | inconclusive: 89.1 µM [inhibitor, single point]
CN(Cc1cn(-c2ccccc2)nn1)Cc1cnc2ccccn12 | inconclusive: 39.8 µM [inhibitor, partial curve, poor fit]
Fc1ccc2cnc(N3CCC(N[C@H]4C[C@@H]5OCC[C@H]45)CC3)nc2c1 | inactive
COCCNC(=O)[C@@H]1C[C@@H](O)CN1C1CCN(C(=O)c2ccccc2)CC1 | inactive
Cc1nc(N2CCN(C(=O)Cc3cccs3)CC2)cc(C(F)(F)F)n1 | inconclusive: 89.1 µM [inhibitor, single point]
Cn1cc(-c2cnc(Nc3cccnc3)c3c2CCO3)cn1 | inconclusive: 100 µM [inhibitor, partial curve, poor fit]
O=C(NC1CCCC1)N1CCCC(C(=O)N2CCC(N3Cc4ccccc4C3=O)CC2)C1 (centres undefined) | inactive
O=C(Cn1nc2c(cc1=O)CCCCC2)Nc1ccncc1 | inactive
COC(=O)C1=CN(CC(=O)Nc2ccccc2)S(=O)(=O)N=C1C | inactive
Cc1cc(C(=O)N2[C@@H]3CC[C@H]2CC(NC(=O)c2ccc(F)cc2)C3)n[nH]1 (some centres undefined) | inactive

SMILES | Potency
CN(C)c1ccc2ncc(Nc3ccccc3F)n2n1 | active: 112 µM
COc1ccc(-c2ccnc3nc(CC(C)C)nn23)cc1OC | inconclusive: 89.1 µM [inhibitor, single point]
COc1ccc2nc(CO[C@H]3CN(Cc4ncccc4C)C[C@H]3F)[nH]c2c1 | inconclusive: 126 µM [inhibitor, single point]
COc1cncc(CN2CCC3(CC2)COCCN3C(=O)OCc2ccccc2)c1 | inconclusive: 126 µM [inhibitor, single point]
COCC1CN(C2CCC2)CC12CCN(C(=O)c1ccc(F)cc1F)CC2 (centres undefined) | inconclusive: 89.1 µM [inhibitor, single point]
CC(C)c1ccc(C(=O)N(C)CC2CCOC2)cc1 (centres undefined) | inactive
CN(C)CCNC(=O)c1cc2n(n1)CCCN(C(=O)[C@@H]1CCCN1)C2 | inactive
CCOc1ccccc1NC(=O)N1CCC(N2C(=O)C3(CCCC3)C2c2ccccc2)CC1 (centres undefined) | inconclusive: 89.1 µM [inhibitor, single point]
O=C(NC1CC1)c1cn2cc(-c3ccc(F)cc3)sc2n1 | inconclusive: 70.8 µM [inhibitor, partial curve, poor fit]
Cc1ccc(CN2C(=O)[C@@H]3C[C@@H](O)CN3C3(CN(Cc4ccccc4F)C3)C2=O)o1 | inactive
COc1ccc(C(=O)N[C@@H]2CCC[C@@H]2C(=O)N2CCN(c3cccc(OC)c3)CC2)cc1 | inactive
CC(=O)c1ccc(NC(=O)O[C@@H]2CO[C@H]3[C@@H]2OC[C@@H]3n2nnnc2SCc2ccco2)cc1 | inactive
O=C(c1cncs1)N1CCc2c(cc(-c3cccc(F)c3)c(=O)n2CCN2CCCCC2)C1 | inactive
Cc1cc(C)cc(CN2CCCCC23Cc2ccccc2CNC3=O)c1 (centres undefined) | inconclusive: 56.2 µM [inhibitor, partial curve, poor fit]
CN1C[C@H](N(C)C)CCC[C@@H](C(=O)N(C)Cc2cccnc2)CC1=O | inactive
COc1ccc(CNC(=O)Cn2cccc2-c2nc(-c3ccc(F)cc3)no2)cc1 | inactive
CCN1CCN(C(=O)c2ccc3nnc(-c4ccoc4)n3c2)CC1 | inactive
Cc1ccc(C)c(CCNC(=O)[C@H]2CNC[C@H](C(=O)N3CCOCC3)C2)c1 | inactive
Cn1nccc1C(=O)N1CC(c2ncc3c(-c4ccc(F)cc4)nccn23)C1 | inconclusive: 100 µM [inhibitor, partial curve]
CC(C)CNC(=O)c1ccc2c(c1)C1(CCCN(CC3CC3)C1)CN2C (centres undefined) | inconclusive: 112 µM [inhibitor, single point]
CN1C(=O)C2(CCN(C(=O)CCc3ccccc3)C2)c2ccccc21 (centres undefined) | inconclusive: 50.1 µM [inhibitor, partial curve, poor fit]
O=S(=O)(N1CCCCC1)N1CCOC(Cc2ccccc2Cl)C1 (centres undefined) | inconclusive: 50.1 µM [inhibitor, partial curve, poor fit]
N#CC1CCN(C(=O)C2CCCN2Cc2ccc(-c3cncnc3)cc2)CC1 (centres undefined) | inactive

SMILES | Potency
CC(C)NC(=O)C1COC2(CCN(C(=O)c3ccc(F)cc3)CC2)N1C(=O)c1ccccc1 (centres undefined) | inconclusive: 89.1 µM [inhibitor, single point]
CCC(=O)N1CCc2sc(C(=O)NC3CCCCCC3)cc2C1 | inconclusive: 89.1 µM [inhibitor, single point]
COCCNC(=O)C(NC(=O)c1ccc(OC)cc1)C1CCN(C(=O)c2ccccc2)CC1 (centres undefined) | inactive
COc1cc(CN2CCC(C)(c3noc(C4CCOCC4)n3)CC2)ccc1OC(C)C | inactive
O=C(Nc1nccs1)[C@@H]1O[C@H](CCN2CCCCC2)CC[C@@H]1O | inactive
COCCN1C(=O)c2ccccc2C(C(=O)Nc2cc(Cl)ccc2OC)C12CCCC2 (centres undefined) | inconclusive: 79.4 µM [inhibitor, single point]
Cc1ccc(SCCNC(=O)C2CCC(=O)N(C3CCCC3)C2)cc1 (centres undefined) | inconclusive: 50.1 µM [inhibitor, partial curve, poor fit]
COCCN1CCCN(C(=O)c2cc(C)cc(C)c2)c2ccccc21 | inconclusive: 39.8 µM [inhibitor, full curve, poor fit]
O=C(NC1CCN(c2cc(-c3ccccc3)[nH]n2)CC1)c1ccc(F)cc1F | inconclusive: 56.2 µM [inhibitor, partial curve, poor fit]
COCCN1C(=O)[C@@H]2C[C@@H](CN2C(=O)c2ccccn2)Oc2ccccc21 | inconclusive: 126 µM [inhibitor, single point]
Cc1nn(-c2ccc(F)cc2)c(Oc2ccccc2)c1CCC(=O)NCC1CCCO1 (centres undefined) | inconclusive: 50.1 µM [inhibitor, partial curve, poor fit]
CN1CCN(Cc2nc(C3(O)CCN(Cc4ccccc4C(F)(F)F)CC3)cs2)CC1 | inconclusive: 89.1 µM [inhibitor, single point]
O=C1NCC2(CCN([S+](=O)([O-])c3cccc(C(F)(F)F)c3)CC2)Oc2ccccc21 | inconclusive: 89.1 µM [inhibitor, single point]
Cc1noc2nc(C(C)C)cc(C(=O)NC3CCCc4c3[nH]c3c(Cl)cccc43)c12 (centres undefined) | active: 35.5 µM
COc1ccc(OC)c(NC(=O)Cn2nc3n(c2=O)CCCCC3)c1 | inactive
COc1ccc(-c2noc([C@@H]3CCCN3C(=O)c3ccc(OC)cc3C)n2)cc1 | inconclusive: 79.4 µM [inhibitor, single point]
CC(=O)c1c(C)nn(CC(=O)N2CCn3nc(Cc4ccccc4)cc3C2)c1C | inconclusive: 35.5 µM [inhibitor, partial curve]
COc1ccc(-c2nn(-c3ccccc3)cc2CN2CCC(C#N)CC2)c(F)c1 | inconclusive: 56.2 µM [inhibitor, partial curve, poor fit]
O=C(c1ccc2[nH]ccc2c1)N1CCCC(Cc2noc(-c3cnccn3)n2)C1 (centres undefined) | inactive
Cn1cccc1C(=O)N1CCCN(C(=O)C2CC2)C(c2ccccc2)CC(=O)NCC1 (centres undefined) | inactive
CSc1ccc(-c2cccc(C(=O)NCCN[S+](=O)([O-])c3c(C)noc3C)c2)cc1 | inconclusive: 39.8 µM [inhibitor, partial curve, poor fit]
COc1ccc(C(=O)NCCn2ccn3nc(-c4ccc(C)c(C)c4)cc3c2=O)cc1 | inconclusive: 31.6 µM [inhibitor, full curve]
C=CCOc1cccc(-c2nc(C(=O)NCC)cs2)c1 | inconclusive: 50.1 µM [inhibitor, partial curve, poor fit]
